# The list shows a part of the results.
# Columns and labels:
# Assay in all cases: glycan array binding signal (z-score within array); higher = stronger binding
# Settings in all cases: glycan notation: IUPAC condensed, linker removed
# [1] = molecular target: GlcNAc(b1-3)Gal(b1-4)GlcNAc
# Outline: (§1)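 Columns mapping to the same glycan were averaged after glycan names were converted to IUPAC-condensed notation. The data come from 3228 arrays in the Consortium for Functional Glycomics database, limited to those with an available protein sequence. Binding is reported as a within-array Z-score averaged across arrays of one protein sequence and across linkers.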
# [2] = molecular target: GlcNAc(b1-3)Gal(b1-4)GlcNAc(b1-2)Man(a1-3)[GlcNAc(b1-3)Gal(b1-4)GlcNAc(b1-2)Man(a1-6)]Man(b1-4)GlcNAc(b1-4)GlcNAc
# Outline: as §1
# [3] = molecular target: GlcNAc(b1-3)Gal(b1-4)GlcNAc(b1-2)Man(a1-3)[GlcNAc(b1-3)Gal(b1-4)GlcNAc(b1-2)Man(a1-6)]Man(b1-4)GlcNAc(b1-4)[Fuc(a1-6)]GlcNAc
# Outline: as §1
# [4] = molecular target: GlcNAc(b1-3)Gal(b1-4)GlcNAc(b1-2)[GlcNAc(b1-3)Gal(b1-4)GlcNAc(b1-6)]Man(a1-6)[GlcNAc(b1-3)Gal(b1-4)GlcNAc(b1-2)Man(a1-3)]Man(b1-4)GlcNAc(b1-4)GlcNAc
# Outline: as §1
# [5] = molecular target: GlcNAc(b1-3)Gal(b1-4)GlcNAc(b1-3)Gal(b1-4)GlcNAc
# Outline: as §1
# [6] = molecular target: GlcNAc(b1-3)Gal(b1-4)GlcNAc(b1-3)Gal(b1-4)GlcNAc(b1-2)Man(a1-3)[GlcNAc(b1-3)Gal(b1-4)GlcNAc(b1-3)Gal(b1-4)GlcNAc(b1-2)Man(a1-6)]Man(b1-4)GlcNAc(b1-4)GlcNAc
# Outline: as §1
# [7] = molecular target: GlcNAc(b1-3)Gal(b1-4)GlcNAc(b1-3)Gal(b1-4)GlcNAc(b1-2)Man(a1-3)[GlcNAc(b1-3)Gal(b1-4)GlcNAc(b1-3)Gal(b1-4)GlcNAc(b1-2)Man(a1-6)]Man(b1-4)GlcNAc(b1-4)[Fuc(a1-6)]GlcNAc
# Outline: as §1
# [8] = molecular target: GlcNAc(b1-3)Gal(b1-4)GlcNAc(b1-3)Gal(b1-4)GlcNAc(b1-2)[GlcNAc(b1-3)Gal(b1-4)GlcNAc(b1-3)Gal(b1-4)GlcNAc(b1-6)]Man(a1-6)[GlcNAc(b1-3)Gal(b1-4)GlcNAc(b1-3)Gal(b1-4)GlcNAc(b1-2)Man(a1-3)]Man(b1-4)GlcNAc(b1-4)[Fuc(a1-6)]GlcNAc
# Outline: as §1
# [9] = molecular target: GlcNAc(b1-3)Gal(b1-4)GlcNAc(b1-3)Gal(b1-4)GlcNAc(b1-3)Gal(b1-4)GlcNAc(b1-2)Man(a1-3)[GlcNAc(b1-3)Gal(b1-4)GlcNAc(b1-3)Gal(b1-4)GlcNAc(b1-3)Gal(b1-4)GlcNAc(b1-2)Man(a1-6)]Man(b1-4)GlcNAc(b1-4)GlcNAc
# Outline: as §1
# [10] = molecular target: GlcNAc(b1-3)Gal(b1-4)GlcNAc(b1-3)Gal(b1-4)GlcNAc(b1-3)Gal(b1-4)GlcNAc(b1-2)Man(a1-3)[GlcNAc(b1-3)Gal(b1-4)GlcNAc(b1-3)Gal(b1-4)GlcNAc(b1-3)Gal(b1-4)GlcNAc(b1-2)Man(a1-6)]Man(b1-4)GlcNAc(b1-4)[Fuc(a1-6)]GlcNAc
# Outline: as §1
# [11] = molecular target: GlcNAc(b1-3)Gal(b1-4)GlcNAc(b1-3)Gal(b1-4)GlcNAc(b1-3)Gal(b1-4)GlcNAc(b1-2)[GlcNAc(b1-3)Gal(b1-4)GlcNAc(b1-3)Gal(b1-4)GlcNAc(b1-3)Gal(b1-4)GlcNAc(b1-6)]Man(a1-6)[GlcNAc(b1-3)Gal(b1-4)GlcNAc(b1-3)Gal(b1-4)GlcNAc(b1-3)Gal(b1-4)GlcNAc(b1-2)Man(a1-3)]Man(b1-4)GlcNAc(b1-4)[Fuc(a1-6)]GlcNAc
# Outline: as §1
# [12] = molecular target: GlcNAc(b1-3)Gal(b1-4)GlcNAc(b1-3)Gal(b1-4)GlcNAc(b1-3)Gal(b1-4)GlcNAc(b1-3)Gal(b1-4)GlcNAc(b1-2)Man(a1-3)[GlcNAc(b1-3)Gal(b1-4)GlcNAc(b1-3)Gal(b1-4)GlcNAc(b1-3)Gal(b1-4)GlcNAc(b1-3)Gal(b1-4)GlcNAc(b1-2)Man(a1-6)]Man(b1-4)GlcNAc(b1-4)GlcNAc
# Outline: as §1
# [13] = molecular target: GlcNAc(b1-3)Gal(b1-4)GlcNAc(b1-3)Gal(b1-4)GlcNAc(b1-3)Gal(b1-4)GlcNAc(b1-3)Gal(b1-4)GlcNAc(b1-2)Man(a1-3)[GlcNAc(b1-3)Gal(b1-4)GlcNAc(b1-3)Gal(b1-4)GlcNAc(b1-3)Gal(b1-4)GlcNAc(b1-3)Gal(b1-4)GlcNAc(b1-2)Man(a1-6)]Man(b1-4)GlcNAc(b1-4)[Fuc(a1-6)]GlcNAc
# Outline: as §1
# [14] = molecular target: GlcNAc(b1-3)Gal(b1-4)GlcNAc(b1-3)Gal(b1-4)GlcNAc(b1-3)Gal(b1-4)GlcNAc(b1-3)Gal(b1-4)GlcNAc(b1-2)[GlcNAc(b1-3)Gal(b1-4)GlcNAc(b1-3)Gal(b1-4)GlcNAc(b1-3)Gal(b1-4)GlcNAc(b1-3)Gal(b1-4)GlcNAc(b1-6)]Man(a1-6)[GlcNAc(b1-3)Gal(b1-4)GlcNAc(b1-3)Gal(b1-4)GlcNAc(b1-3)Gal(b1-4)GlcNAc(b1-3)Gal(b1-4)GlcNAc(b1-2)Man(a1-3)]Man(b1-4)GlcNAc(b1-4)[Fuc(a1-6)]GlcNAc
# Outline: as §1
# [15] = molecular target: GlcNAc(b1-3)Gal(b1-4)GlcNAc(b1-3)Gal(b1-4)GlcNAc(b1-3)GalNAc
# Outline: as §1
# [16] = molecular target: GlcNAc(b1-3)Gal(b1-4)GlcNAc(b1-3)GalNAc
# Outline: as §1
# [17] = molecular target: GlcNAc(b1-3)Gal(b1-4)GlcNAc(b1-3)[GlcNAc(b1-3)Gal(b1-4)GlcNAc(b1-3)]GalNAc
# Outline: as §1
# [18] = molecular target: GlcNAc(b1-3)Gal(b1-4)GlcNAc(b1-6)[Gal(b1-3)]GalNAc
# Outline: as §1
# [19] = molecular target: GlcNAc(b1-3)Gal(b1-4)GlcNAc(b1-6)[GlcNAc(b1-3)Gal(b1-3)]GalNAc
# Outline: as §1
# [20] = molecular target: GlcNAc(b1-3)Gal(b1-4)GlcNAc(b1-6)[GlcNAc(b1-3)]Gal(b1-4)GlcNAc
# Outline: as §1
# GlcNAc(b1-3)GalNAc = molecular target: GlcNAc(b1-3)GalNAc
# Outline: as §1
# GlcNAc(b1-3)Man = molecular target: GlcNAc(b1-3)Man
# Outline: as §1
# [21] = molecular target: GlcNAc(b1-3)[GlcNAc(b1-4)][GlcNAc(b1-6)]GlcNAc
# Outline: as §1
# [22] = molecular target: GlcNAc(b1-3)[GlcNAc(b1-6)]Gal(b1-4)GlcNAc
# Outline: as §1
# [23] = molecular target: GlcNAc(b1-3)[GlcNAc(b1-6)]GalNAc
# Outline: as §1
# [24] = molecular target: GlcNAc(b1-4)Gal(b1-4)GlcNAc
# Outline: as §1
# GlcNAc(b1-4)GlcNAc = molecular target: GlcNAc(b1-4)GlcNAc
# Outline: as §1
# [25] = molecular target: GlcNAc(b1-4)GlcNAc(b1-4)GlcNAc
# Outline: as §1
# [26] = molecular target: GlcNAc(b1-4)GlcNAc(b1-4)GlcNAc(b1-4)GlcNAc(b1-4)GlcNAc
# Outline: as §1
# [27] = molecular target: GlcNAc(b1-4)GlcNAc(b1-4)GlcNAc(b1-4)GlcNAc(b1-4)GlcNAc(b1-4)GlcNAc
# Outline: as §1
# [28] = molecular target: GlcNAc(b1-4)[GlcNAc(b1-6)]GalNAc
# Outline: as §1
# [29] = molecular target: GlcNAc(b1-6)Gal(b1-4)GlcNAc
# Outline: as §1
# GlcNAc(b1-6)GalNAc = molecular target: GlcNAc(b1-6)GalNAc
# Outline: as §1
# GlcNAc3Prop(b1-4)GlcNAc = molecular target: GlcNAc3Prop(b1-4)GlcNAc
# Outline: as §1
# [30] = molecular target: GlcNAc6S(b1-3)Gal(b1-4)GlcNAc
# Outline: as §1
# Kdn(a2-3)Gal(b1-3)GalNAc = molecular target: Kdn(a2-3)Gal(b1-3)GalNAc
# Outline: as §1
# Kdn(a2-3)Gal(b1-3)GlcNAc = molecular target: Kdn(a2-3)Gal(b1-3)GlcNAc
# Outline: as §1
# Kdn(a2-3)Gal(b1-4)Glc = molecular target: Kdn(a2-3)Gal(b1-4)Glc
# Outline: as §1
binder,measurement,setting,value
"LSECtin (Homo sapiens), Q6UXB4 (protein) MDTTRYSKWGGSSEEVPGGPWGRWVHWSRRPLFLALAVLVTTVLWAVILSILLSKASTERAALLDGHDLLRTNASKQTAALGALKEEVGDCHSCCSGTQAQLQTTRAELGEAQAKLMEQESALRELRERVTQGLAEAGRGREDVRTELFRALEAVRLQNNSCEPCPTSWLSFEGSCYFFSVPKTTWAAAQDHCADASAHLVIVGGLDEQGFLTRNTRGRGYWLGLRAVRHLGKVQGYQWVDGVSLSFSHWNQGEPNDAWGRENCVMMLHTGLWNDAPCDSEKDGWICEKRHNC",glycan array binding signal (z-score),[1],-0.162
same,glycan array binding signal (z-score),[2],-0.124
same,glycan array binding signal (z-score),[3],-0.126
same,glycan array binding signal (z-score),[4],-0.136
same,glycan array binding signal (z-score),[5],-0.225
same,glycan array binding signal (z-score),[6],-0.119
same,glycan array binding signal (z-score),[7],-0.134
same,glycan array binding signal (z-score),[8],-0.135
same,glycan array binding signal (z-score),[9],-0.126
same,glycan array binding signal (z-score),[10],-0.132
same,glycan array binding signal (z-score),[11],-0.136
same,glycan array binding signal (z-score),[12],-0.132
same,glycan array binding signal (z-score),[13],-0.139
same,glycan array binding signal (z-score),[14],-0.127
same,glycan array binding signal (z-score),[15],-0.131
same,glycan array binding signal (z-score),[16],-0.131
same,glycan array binding signal (z-score),[17],-0.126
same,glycan array binding signal (z-score),[18],-0.133
same,glycan array binding signal (z-score),[19],-0.143
same,glycan array binding signal (z-score),[20],-0.134
same,glycan array binding signal (z-score),GlcNAc(b1-3)GalNAc,-0.143
same,glycan array binding signal (z-score),GlcNAc(b1-3)Man,-0.205
same,glycan array binding signal (z-score),[21],-0.118
same,glycan array binding signal (z-score),[22],-0.184
same,glycan array binding signal (z-score),[23],-0.151
same,glycan array binding signal (z-score),[24],-0.18
same,glycan array binding signal (z-score),GlcNAc(b1-4)GlcNAc,-0.132
same,glycan array binding signal (z-score),[25],-0.194
same,glycan array binding signal (z-score),[26],-0.251
same,glycan array binding signal (z-score),[27],-0.134
same,glycan array binding signal (z-score),[28],-0.195
same,glycan array binding signal (z-score),[29],-0.003
same,glycan array binding signal (z-score),GlcNAc(b1-6)GalNAc,-0.146
same,glycan array binding signal (z-score),GlcNAc3Prop(b1-4)GlcNAc,-0.15
same,glycan array binding signal (z-score),[30],-0.182
same,glycan array binding signal (z-score),Kdn(a2-3)Gal(b1-3)GalNAc,-0.171
same,glycan array binding signal (z-score),Kdn(a2-3)Gal(b1-3)GlcNAc,-0.203
same,glycan array binding signal (z-score),Kdn(a2-3)Gal(b1-4)Glc,-0.182
